# Publication PMC4336329 (PLoS ONE, 2015)
# Among all 310,000 compounds or so, about 14,000 (4.5%) showed an effect of 50% or more. The effect is printed as a negative number. This is one part of the list.
# Biological target: human ether-à-go-go-related gene (hERG) potassium channel (human, UniProt Q12809)
# Assay: primary screen, population patch clamp on CHO cells stably expressing hERG
# 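Further: peak tail current of the secondary pulse compared with the same well before compound.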
# human ether-à-go-go-related gene (hERG) potassium channel, sequence (Q12809 whole entry, looked up): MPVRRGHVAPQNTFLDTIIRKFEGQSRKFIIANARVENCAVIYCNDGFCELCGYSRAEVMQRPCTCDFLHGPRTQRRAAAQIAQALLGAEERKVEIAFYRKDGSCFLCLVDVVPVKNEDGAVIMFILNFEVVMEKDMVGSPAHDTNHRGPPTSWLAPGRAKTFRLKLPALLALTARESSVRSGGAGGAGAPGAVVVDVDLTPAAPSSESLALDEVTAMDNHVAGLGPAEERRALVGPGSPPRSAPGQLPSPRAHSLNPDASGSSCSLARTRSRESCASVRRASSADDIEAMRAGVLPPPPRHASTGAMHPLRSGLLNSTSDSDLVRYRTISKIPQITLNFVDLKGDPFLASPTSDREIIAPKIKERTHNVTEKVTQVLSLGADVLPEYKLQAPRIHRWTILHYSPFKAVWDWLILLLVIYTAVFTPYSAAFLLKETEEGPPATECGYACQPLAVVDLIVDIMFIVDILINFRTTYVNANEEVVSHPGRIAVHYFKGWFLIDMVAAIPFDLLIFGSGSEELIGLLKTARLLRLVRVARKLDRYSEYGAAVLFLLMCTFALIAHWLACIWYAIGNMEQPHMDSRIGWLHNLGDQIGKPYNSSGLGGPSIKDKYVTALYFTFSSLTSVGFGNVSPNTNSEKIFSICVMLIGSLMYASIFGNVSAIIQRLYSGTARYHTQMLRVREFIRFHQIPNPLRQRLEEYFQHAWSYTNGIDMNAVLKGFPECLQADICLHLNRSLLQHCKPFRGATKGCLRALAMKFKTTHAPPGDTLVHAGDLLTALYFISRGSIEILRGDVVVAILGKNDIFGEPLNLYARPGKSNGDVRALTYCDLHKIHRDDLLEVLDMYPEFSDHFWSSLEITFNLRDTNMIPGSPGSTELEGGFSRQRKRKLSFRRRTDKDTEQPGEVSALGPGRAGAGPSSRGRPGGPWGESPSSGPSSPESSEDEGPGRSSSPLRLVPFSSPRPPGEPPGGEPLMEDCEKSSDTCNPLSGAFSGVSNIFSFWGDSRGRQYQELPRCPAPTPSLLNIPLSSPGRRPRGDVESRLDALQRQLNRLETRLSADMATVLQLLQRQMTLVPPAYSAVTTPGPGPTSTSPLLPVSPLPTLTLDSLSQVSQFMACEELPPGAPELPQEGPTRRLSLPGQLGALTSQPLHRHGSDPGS
row,Compound,"hERG current change (%, negative = inhibition) at 10uM"
1,CCCc1c(O)nc(SCCN(CC)CC)[nH]c1=O.Cl,18.9%
2,Cc1nc(C)c(-c2csc(Nc3ccc(C(=O)O)c(O)c3)n2)s1,14.9%
3,Cc1c(NC(=O)c2nn(C)c(=O)c3ccccc23)c(=O)n(-c2ccccc2)n1C,15.3%
4,O=C1c2ccccc2CN1CCSC(=S)N1CCSCC1,2.67%
5,Cc1ccc(-c2ccc(S(=O)(=O)Nc3cccnc3)cc2)cc1,6.46%
6,CC1CCN(C(=S)c2ccc3c(c2)OCO3)CC1,-1.08%
7,CN1CCN(C(=O)COc2ccc(S(=O)(=O)N(C)Cc3ccccc3)cc2)CC1,-30.7%
8,Cl.N=c1sccn1CC(=O)Nc1ccc(Cl)cc1[N+](=O)[O-],-21%
9,O=C(C1=C[C@@H](c2coc3ccccc3c2=O)C[C@@H](OCCCCO)O1)N1CCOCC1,7.47%
10,Cc1ccc(C(=C2C3C=CC2C2C(=O)NC(=O)C32)c2ccc(C)cc2)cc1 (centres unmarked),6.93%
11,COC(=O)C1=C(N)OC2=C(C(=O)CC(C)(C)C2)C1c1ccccc1OC (centres unmarked),11.2%
12,CSCCC(NC(=O)c1cccc(S(=O)(=O)N2CCOCC2)c1)C(=O)Nc1ccc(F)cc1 (centres unmarked),-18.2%
13,Cc1ccc2c(COC(=O)c3ccccc3Br)cc(=O)oc2c1,20.8%
14,COCCNC(=O)C(=O)Nc1cc2c3c(c1)C(C)C(=O)N3CCC2 (centres unmarked),-0.505%
15,Nc1nc(-c2ccc(Oc3ccccc3)cc2)cs1,-4.26%
16,O=C(Nc1ccccc1O)c1nc(Cl)ccc1Cl,21.7%
17,O=C(O)CNC(=O)CC1S/C(=N/N=C2\CSC(=O)N2)NC1=O (centres unmarked),9.57%
18,CCOC(=O)CSc1nnc([C@@H](NC(=O)OC(C)(C)C)C(C)C)o1,11.3%
19,CCNc1nc(NC#N)nc(SCC(=O)OCC)n1,-2.05%
20,O=C(NCc1ccccc1)C1CC2CCCC(C1)C2=O (centres unmarked),12%
21,COc1ccc(/C=N\NC(=O)c2ccc(=O)[nH]n2)cc1O,18.4%
22,COc1cccc(CN2CCC(C(=O)N3CCC(C)CC3)CC2)c1.O=C(O)C(=O)O,-11%
23,CCc1cccc(NS(=O)(=O)c2ccc3c(c2)oc(=O)n3C)c1,-8.3%

row,Compound,"hERG current change (%, negative = inhibition) at 10uM"
1,COC(=O)c1ccccc1NC(=O)C1CC(c2ccccc2O)=NO1 (centres unmarked),1.61%
2,CC(=O)c1c(C)[nH]c(C(=O)OCC(=O)C(C)(C)C)c1C,-2.38%
3,COc1ccc(C(=O)N2CCN(C)C(=O)[C@@H]2C)cc1OC1CCN(C(C)C)CC1,9.56%
4,CC(=NCCCN1CCOCC1)c1c(O)n(Cc2ccccc2)c(=O)[nH]c1=O,-19.5%
5,CCN(CC)CCOCCOc1ccc(Cl)c2ccccc12,-68%
6,O=C(/C=C/c1ccc(Cl)cc1)N1CCN(Cc2ccccc2)CC1,-35.6%
7,CCOc1ccc(CSCCNC(=S)Nc2ccccc2)cc1,-6.35%
8,Cc1cc(C)cc(NC(=O)CCc2c(C)nn(-c3ccc(N4CCOCC4)nn3)c2C)c1,-5.1%
9,CS(=O)(=O)c1ccc2c(c1)SC1=NC(=O)/C(=C/c3ccco3)C(=N)N12,27.1%
10,COc1ccc(S(=O)(=O)Nc2ccc3c(c2)OCO3)cc1C,-9.09%
11,Cc1ccc(C(=O)N2CCN(c3ccc([N+](=O)[O-])c(NCc4ccco4)c3)CC2)cc1,-50.5%
12,S=C(Nc1ccc2c(c1)OCO2)N1CCN(Cc2ccco2)CC1,14%
13,O=C(O)CN1C(=O)/C(=C\c2cn(CC(=O)N3CCOCC3)c3ccccc23)SC1=S,1.29%
14,c1ccc(Oc2cccc3cccnc23)nc1,10.7%
15,Cc1cc(C(C)(C)C)cc(C)c1N.Cl,4.49%
16,CCOc1ccc(N2C(=O)CC(Sc3nc(C)cc(C)c3C#N)C2=O)cc1 (centres unmarked),10.5%
17,Cc1nn(CC(=O)NCCc2ccccc2)c(=O)c2cc3occc3n12,14.5%
18,COc1cc(NC(=O)C2CCCCC2)c(OC)cc1NC(=O)CCC(=O)NCc1ccco1,-22.8%
19,COC(=O)[C@H](CC(C)C)NS(=O)(=O)N(Cc1ccccc1)[C@@H](CC(C)C)C(=O)OC,1.72%
20,COc1ccc(CC(NC(C)=O)C(=O)NC2CCN(C(=O)Nc3ccc(C#N)cc3)CC2)cc1OC (centres unmarked),5.33%
21,O=C1CC[C@@H](CN(Cc2ccccn2)Cc2nc(Cc3cccc(C(F)(F)F)c3)no2)N1,-48.4%
22,CCS(=O)(=O)c1ccc2oc(Nc3ccccc3Cl)nc2c1,10.4%
23,COc1ccc(CCNC(=O)c2cc([N+](=O)[O-])ccc2N2CCOCC2)cc1,-33%

row,Compound,"hERG current change (%, negative = inhibition) at 10uM"
1,CCOc1cc(CNS(=O)(=O)c2cn(C)cn2)cc(OCC)c1OCC,27.4%
2,COc1cccc(CSc2nc3nc(C)cc(C)n3n2)c1,-4.72%
3,Cc1ccccc1OCC(=O)Nc1nc(C)c(C(=O)N(C)C)s1,2.53%
4,CCOC(=O)C1(Cc2cccc(OC)c2)CCCN(C(=O)c2cc(C)oc2C)C1 (centres unmarked),-6.37%
5,CN1CC2CCCC3(C1)C(=O)NC1(CCCCC1)N=C23 (centres unmarked),2.95%
6,Br.OCCn1c(-c2ccc(F)cc2)csc1=Nc1ccccc1,-31.4%
7,N#Cc1ccc(-c2ccccc2)nc1Sc1ccc(F)cc1,13.2%
8,Cc1ccc(NC(=O)CN(C)S(=O)(=O)c2ccc(Cl)s2)c(O)c1,2.29%
9,CC(C)CCNC(=O)C(c1ccncc1)N(Cc1cccs1)C(=O)Cn1nnc(-c2ccc(F)cc2)n1 (centres unmarked),-8.51%
10,CCc1c(C)sc(NC(=O)c2cc(C3CC3)on2)c1C#N,9.61%
11,Cc1ccc(/C=N/n2cnc3sc4c(c3c2=O)CCCC4)o1,-12.6%
12,Cc1ccc(-n2c(C)cc(=O)cc2C)cc1[N+](=O)[O-],26.3%
13,Cc1ccc(C)c(NC(=S)c2ccccn2)c1,18.9%
14,CCCCSc1nnc(CCC)n1N,-2.49%
15,COC(=O)CNC(=O)Cn1cnc2sc(C)c(S(=O)(=O)N3CCC(C)CC3)c2c1=O,-2.53%
16,COC(=O)c1ccc2c(c1)S(=O)(=O)NC(=NCc1ccco1)S2,-23.8%
17,COc1ccccc1C(=O)n1nc(C)cc1C,6.01%
18,CCOC(=O)c1csc(NC(=O)c2cc3ccccc3o2)n1,3.91%
19,Cc1nc(Nc2ccccc2)sc1C(=O)c1ccc(F)cc1,15.9%
20,CCOc1ccc(CN2CCCC(N3CCN(c4ccc(OC)cc4)CC3)C2)cc1 (centres unmarked),-64%
21,CN1CCN(C(=O)c2ccccc2NC(=O)c2ccccc2)CC1,-22.5%
22,c1ccc(-c2nnc(C(c3ccccc3)c3ccccc3)o2)cc1,6.86%
23,CC(C)(Oc1ccc(Cl)cc1)C(=O)NCC(c1ccco1)N1CCCCC1 (centres unmarked),-20.2%

row,Compound,"hERG current change (%, negative = inhibition) at 10uM"
1,COc1ccc(C2(O)CC3CCC(C2)N3c2cc(C)nc(-c3ccccc3)n2)cc1 (centres unmarked),-17.7%
2,Cc1ccc(C(=O)Nc2ccc(C(=O)N3CCCCC3)cc2)o1,12.2%
3,O=C(Nc1cccc(F)c1)Nc1ccnn1C1CCN(C(=O)c2ccccn2)CC1,14.2%
4,Cc1ccc(S(=O)(=O)N2CCOCC2)cc1C(=O)OCC(=O)N(Cc1ccccc1)C(C)C,-14.5%
5,Cc1ccc(S(=O)(=O)N2CCN(C(=O)COC(=O)CCOc3ccccc3C)CC2)cc1,-15.4%
6,COc1ccccc1C(=O)Nc1ccnn1C1CCN(C/C=C/c2ccc(F)cc2)CC1,-76.6%
7,O=C(CCc1ccccc1Cl)Nc1cc2c(cc1C(=O)O)OCCCO2,22.4%
8,COc1ccc(-c2cc(C(=O)Nc3cc(C)nn3-c3ccccc3)no2)cc1,-4.63%
9,CC1(C)Cc2ccccc2-c2nc3n(c(=O)c21)CCS3,5.97%
10,C/C(=N\NC(=O)c1ccccc1O)c1ccc(Br)s1,11%
11,O=C(O)C(=O)O.c1ccc(-c2ccccc2OCCCN2CCCC2)cc1,-65%
12,O=C(CSc1cn(CC(=O)N2CCCCC2)c2ccccc12)NCC1CCCO1 (centres unmarked),0.31%
13,Cc1ccc(Cc2c(C)nc3nc(SCC(=O)NCc4ccco4)nn3c2C)cc1,-20.6%
14,COc1ccc(CNC(=O)C2CCN(C(=O)c3ccco3)CC2)cc1,-5.58%
15,CC1(C)Cc2c(sc(NC(=O)c3ccccc3Cl)c2C(=O)O)CO1,15.8%
16,COc1cccc2cc(CC(=O)c3ccc(C)cc3C)c(=O)oc12,11.6%
17,O=C(CSc1nc2cc(Cl)ccc2c(=O)n1Cc1ccco1)Nc1ccc(S(=O)(=O)N2CCOCC2)cc1,-13.6%
18,COc1cc(OC)c(NC(=O)Cc2cccs2)cc1Cl,1.14%
19,Cc1ccc(C)c(NC(=O)CN(C)C(=O)c2ccc(S(=O)(=O)N(C)c3ccccc3)cc2)c1,-38.7%
20,COc1ccccc1N1C(=NC(=O)C2CCCCC2)SC2CS(=O)(=O)CC21 (centres unmarked),-31.4%
